Assay results taken from PubChem BioAssay AID1671194 (National Center for Advancing Translational Sciences (NCATS), 2021).
The whole screen tested about 140,000 compounds, of which about 240 (0.17%) were called active. This list was built around the results that the source calls inconclusive (neither active nor inactive); the mix of calls is not that of the screen. Calls come from the whole dose curve; as a rule, active = well fitted inhibition curve with a large enough effect; inconclusive = small, poorly fitted or top-dose-only effect; inactive = no such curve, though single readings can be large or run the other way. Where the call is inconclusive, the potency comes from a doubtful curve fit.

Experiment: Primary qHTS assay for inhibitors of alpha-synuclein gene (SNCA) expression; note: nearly all actives have a fitted effect of over 45% in size
Conditions: HEK-293 SNCA-luciferase knock-in, luminescence, 24 h; activity change, negative = inhibition: at 57.2 µM (top of the series) unless noted
Excerpt: Assay Submitter (PI): Daniel R. Scoles Ph.D.
Department of Neurology, University of Utah, Salt Lake City, Utah
Accumulation of alpha-synuclein is a main underlying pathological feature of Parkinson's disease (PD) and alpha-synucleinopathies, for which lowering expression of the alpha-synuclein gene (SNCA) is a potential therapeutic avenue. Using a cell-based luciferase reporter of SNCA expression we performed a quantitative high throughput screen (qHTS) of 155,885 compounds in dose response. The screening assay was generated using genome editing to insert the luciferase gene downstream and in frame of the SNCA gene in HEK-293 cells (1). A viability counterscreen using GF-AFC was used to eliminate cytotoxic and false positive compounds. After in silico analysis (clustering, removal of frequent hitter nuisance chemotypes), inhibitor compounds from the primary screen were selected for follow up and re-tested at 11-doses in the SNCA-luc cells (luciferase and GF-AFC confirmation), and in CMV-luc expressing cell line to flag general transcriptional repressors.
Described herein are the results of the primary screen for SNCA inhibitors; decrease in luciferase signal (inhibition of the SNCA gene expression) is the desired output for this assay.
1. Dansithong, W., Paul, S., Scoles, D. R., Pulst, S. M., and Huynh, D. P. (2015) Generation of SNCA Cell Models Using Zinc Finger Nuclease (ZFN) Technology for Efficient High-Throughput Drug Screening. PLoS ONE 10, e0136930.
SEQUENCE No. (e.g., 1, 2, 3, etc.); […] (e.g., Cells, Incubation, Reagent, etc.); VALUE; DESCRIPTION
1; Cells; 4 uL; Dispense 1500 HEK-293-SNCA-luc cells/well into Greiner 1536-well white / solid bottom tissue culture treated plate. The plate was covered with metal lids with gas-exchange holes.
2; Incubate; 24 hours; Incubate at 37C, 5% CO2, 95% RH.
3; Compounds; 23 nL; Compounds and controls were transferred via a Kalypsys Pin Tool (Wako USA) equipped with a 1536-slotted pin array. The plate was covered with metal lids with gas-exchange holes.
4; Incubate; 24 hours; Incubate at 37C, 5% CO2, 95% RH.
5; Dispense; 1 uL; Dispense Gly-Phe-7-amino-4-trifluoromethylcoumarin (GF-AFC, prepared at 125 uM in PBS) was added. The plate was covered with metal lids with gas-exchange holes.
6; Incubate; 30 min; Incubate at 37C, 5% CO2.
7; Detector; Fluorescence; Measure fluorescence with ViewLux microplate reader (PerkinElmer) equipped with 405/10 excitation and 540/25 emission filters.
8; Dispense; 3 uL; Dispense ONE-Glo ([…]) lucifase detection reagent was added to each well. Plates were covered with metal lids with gas-exchange holes.
9; Incubate; 15 min; Incubate at room temperature.
10; Detector; Luminescence; Measure luminescence with ViewLux microplate reader (PerkinElmer) equipped with clear filters.
NOTES (numbers refer to sequence above)
1; HEK-293-SNCA-luc were cultured and suspended in phenol-red free DMEM (4.5 g/L glucose, 25 mM HEPES, cat #21063 (Thermo)).
3; Compounds were added to the assay plate in an 11-point intra plate dose response, 1:3 titration in DMSO with a final concentration range of […]. Vehicle-only plates, with DMSO being pin-transferred to every well, were inserted at the beginning of screening runs to confirm expected assay performance. Activity was normalized to wells containing medium only (-100% activity, full inhibition) and SNCA-luc cells treated with DMSO vehicle control (0% activity), contained on the same plate as test samples.
10; Signals were analyzed, and dose-response curves were fit using the Hill equation. Compounds in curve classes -1.1, -1.2, -2.1, -2.2 in the SNCA-luc assay were considered active. Compounds were eliminated from further consideration if also active (curve class -1.1, -1.2, -1.3, -1.4, -2.1, -2.2, -2.3, -2.4) in the GF-AFC cytotoxicity assay.
Potency is the fitted concentration of half-maximal effect; tags give direction and shape of the fitted curve.

Potency, inconclusive:
O=C(O)[C@]12CCCN[C@@H]1CCN(c1cc(N3CCOCC3)ncn1)C2 39.8 µM [inhibitor, single point]
CN(C)c1ncc2c(n1)C(C)(C(=O)Nc1cccc(F)c1)CCC2 (centres undefined) 44.7 µM [inhibitor, single point]
CCCN(CC1CCOC1)S(=O)(=O)c1ccccc1CC (centres undefined) 17.8 µM [inhibitor, single point]
COc1ccccc1CC(=O)N1CCC(Cc2nc(-c3ccc(F)cc3)no2)CC1 5.01 µM [inhibitor, full curve]
Cc1nn2c(c1-c1ccccc1C(C)C)N(C(=O)c1cc3ccccc3n1C)CCC2 14.1 µM [inhibitor, partial curve, poor fit]
O=C1N(C2CCNCC2)C(c2ccccc2)C12CCCC2 (centres undefined) 39.8 µM [inhibitor, single point]
CC1=C[C@@H](CNC(=O)C2CCCCC2)[C@H](C(C)C)C[C@H]1Cc1nc2ccccc2n1C 14.1 µM [inhibitor, partial curve]
O=C(c1ccco1)N1CCC2(CC1)CN(C(c1ccccc1)c1ccccc1)C2 8.91 µM [inhibitor, partial curve]
CN(C)CCCN1c2ccccc2Sc2ccc(Cl)cc21 11.2 µM [inhibitor, partial curve]
CCCCNC(=O)c1cccc2c1CCN2C(=O)Nc1ccc(C)cc1 0.891 µM [inhibitor, full curve, poor fit]
CCCC1(C)C(C#N)(C#N)C1(C#N)C#N 20 µM [inhibitor, partial curve, poor fit]
COc1cccc(-c2ccc(CN3CC4CCC(C3)N4c3ccc(C(F)(F)F)cc3)cc2)c1 2.82 µM [inhibitor, partial curve, poor fit]
c1ccc(CN2CCNc3cnc(Nc4ccc(N5CCOCC5)cc4)cc3C2)cc1 28.2 µM [inhibitor, partial curve, poor fit]
Cc1ccc(C)c(CNC(=O)CCc2conc2-c2cccc(F)c2)c1 2 µM [inhibitor, partial curve, poor fit]
OCC1CN(Cc2ccc(Cl)cc2)CC12CCNCC2 (centres undefined) 25.1 µM [inhibitor, partial curve, poor fit]
CCOC(=O)c1ccc(N2C(=O)c3n[nH]c(C)c3C2c2cccc(Br)c2)cc1 (centres undefined) 0.158 µM [inhibitor, full curve, poor fit]
CCCCn1ccnc1C1CCCN(C(=O)c2ccccc2-c2ncn[nH]2)C1 (centres undefined) 8.91 µM [inhibitor, single point]
O=c1cc(-c2ccccc2)n2c(SCc3ccc(Cl)cc3)nnc2[nH]1 0.631 µM [inhibitor, full curve, poor fit]
COCCN1C(=O)c2ccccc2C(C(=O)NCCC2=CCCCC2)C12CCCC2 (centres undefined) 10 µM [inhibitor, single point]
C#CCN1C(=O)[C@]2(C)[C@H](c3ccccc31)[C@@H](C(N)=O)CN2C(=O)c1cccc(OC)c1 1 µM [inhibitor, partial curve, poor fit]
CC(=O)NC1CC2(CCN(C(=O)c3c(C)noc3C)CC2)Oc2ccccc21 (centres undefined) 2.51 µM [inhibitor, full curve, poor fit]
Cc1sc2c(c1C)c(=O)n(-c1ccc(Cl)cc1)c(=O)n2Cc1cc(=O)n2ccccc2n1 39.8 µM [inhibitor, single point]
COc1ccc(-n2nc(C)c([C@@H]3C=C[C@@H](NS(=O)(=O)c4cccs4)C3)c2C)cc1 56.2 µM [inhibitor, single point]
O=C(Cc1ccc(O)cc1)N1CC(CNc2ccccc2)C2(C1)CN(c1ccccc1)C2 (centres undefined) 1.12 µM [inhibitor, single point]
COc1ccc(C2C(C(N)=O)=C(C)Nc3nc(SCc4ccccc4Cl)nn32)cc1OC (centres undefined) 7.94 µM [inhibitor, partial curve, poor fit]
COc1ccc([S+](=O)([O-])c2nnn3c2nc(NC2CCCC2)c2ccccc23)cc1 11.2 µM [inhibitor, partial curve]
Cc1ccc(C2CCN(C(=O)c3cnn(-c4cccc(Cl)c4)c3C3CCN(C(=O)OC(C)(C)C)CC3)C2)cc1 (centres undefined) 15.8 µM [inhibitor, partial curve, poor fit]
OC(c1cccc(C(F)(F)F)c1)c1nc(Nc2ccc(F)cc2F)n[nH]1 (centres undefined) 35.5 µM [inhibitor, partial curve, poor fit]
Cc1cc(C)cc(NC(=O)C(=O)NCC(c2ccc3c(c2)OCO3)N2CCN(C)CC2)c1 (centres undefined) 5.62 µM [inhibitor, partial curve]
O=C(Nc1cccc(F)c1)N1CCc2c(nc3cc(-c4ccccc4Cl)[nH]n3c2=O)C1 4.47 µM [inhibitor, single point]
CCN(CC)S(=O)(=O)c1ccc(NC(=O)NCc2noc3ccc(C)cc23)cc1 39.8 µM [inhibitor, single point]
O=C1NCCCCCCN(C(=O)c2ccoc2)[C@H]2CCC[C@@H]12 8.91 µM [inhibitor, single point]
COC[C@@H]1CN(C(=O)c2cc(Cl)ccc2OC)C[C@H]1C(N)=O 15.8 µM [inhibitor, single point]
Cc1ccccc1S(=O)Cc1ccc(C(=O)N2CCN(c3cccc(C)c3C)CC2)o1 (centres undefined) 1.58 µM [inhibitor, partial curve, poor fit]
COc1ccc(C(C)NC(=O)c2cc3c(N4CCSCC4)nc(C)cn3n2)cc1OC (centres undefined) 39.8 µM [inhibitor, single point]
COc1ccc(NC(=O)Cn2nnc(C(=O)NCCc3ccccc3)c2N)cc1 14.1 µM [inhibitor, single point]
Cc1nn2c(c1-c1ccccc1Oc1ccccc1)N(Cc1cccc(O)c1)CCC2 5.62 µM [inhibitor, full curve, poor fit]
Cc1cccc(N(CC(O)Cn2c3ccccc3c3ccccc32)S(=O)(=O)c2ccc(F)cc2)c1 (centres undefined) 31.6 µM [inhibitor, single point]
O=S(=O)(c1ccccc1F)N1CCC(n2cnnc2C2CC2)CC1 2.82 µM [inhibitor, single point]
O=C(NC1CCCc2c1[nH]c1c(Cl)cccc21)c1ccco1 (centres undefined) 11.2 µM [inhibitor, partial curve]
CC(C)CCN1CCc2ncc(C(=O)NCCOc3ccccc3)n2CC1 28.2 µM [inhibitor, single point]
COc1ccc(-c2cc3nc4c(c(=O)n3[nH]2)CN(C(=O)NCc2ccco2)CC4)cc1 2.24 µM [inhibitor, partial curve, poor fit]
O=C(CN1CCn2nc(C(O)C3CC3)cc2C1)N1CCc2ccccc21 (centres undefined) 39.8 µM [inhibitor, single point]

Potency, active:
CCNc1cc(N2CCC(CCC(=O)O)CC2)ncn1 1.26 µM
COCCCNC(=O)c1cccc2c1CCN2C(=O)Nc1cccc(C)c1 3.55 µM

Activity change, negative = inhibition, inactive:
COc1ccc(-c2cc(C[C@H]3CNCC[C@H]3CC(=O)Nc3ccccc3)no2)cc1 17.2% [at 87.6 µM]
COc1ccccc1Nc1ncc2c(n1)CN(C(=O)c1cc3ccccc3n1C)CCN2 -11.8% [at 87.6 µM]
Cc1cn2c(=O)cc(CN3CC[C@@](C)(O)[C@@H](O)C3)nc2s1 17.7%
COc1ccc(NC(=O)c2cnc3c(c2)N(C(=O)Cc2cccc(C(F)(F)F)c2)CCC3)cc1OC 4.99%
O=C(NC1CC1)c1ccccc1OCC1CCCN(Cc2cccc3[nH]ccc23)C1 (centres undefined) 2.27%
CCn1cnc2c(=O)oc3ccc(S(=O)(=O)N4CCN(c5cc(C)ccc5C)CC4)cc3c21 19.3%
O=C1CC(c2ccccc2)N(C(=O)CNS(=O)(=O)c2ccc3c(c2)CCC3)CCCCCCN1 (centres undefined) -26.3%
CCC1Oc2ccc(NC(=O)c3c(F)cccc3F)cc2CN(Cc2ccc3c(c2)OCO3)C1=O (centres undefined) -2.03%
CCOc1ccccc1-c1noc(-c2nnn3c2COC(c2cccc(OC)c2)C3)n1 (centres undefined) -7.64%
Cc1cc2cc(-c3c(C)noc3C)nc(NC3CCN(C)CC3)c2o1 47.2% [at 87.6 µM]
COc1cccc(CN2CC[C@@H]3C(=O)NCCCCCCN(Cc4ccncc4)[C@@H]3C2)c1 29.9%
CN(C)c1cccc(NC(=O)c2ccnc(-c3nnc4ccc(N5CCOCC5)nn34)c2)c1 27.8%
CN(Cc1cccnc1)C1CCCc2ccccc21 (centres undefined) -2.24% [at 87.6 µM]
CCCC1CN(C(=O)OC(C)(C)C)CCN1 (centres undefined) 1.71% [at 87.6 µM]
Cc1noc(-c2ccc(OC3CN(C(=O)c4cccc5[nH]ccc45)C3)cc2)n1 60.7%
CCNC(=O)N1CCCN(S(=O)(=O)c2ccccc2)CCC(=O)NCC1 -6.48%
COCc1cc(=O)n(CC(=O)Nc2ccc(C)cc2Cl)c(N2CCOCC2)n1 -12.5%
Cc1ccsc1C(=O)N1C[C@@H]2CCCN3CCC[C@@H]([C@H]23)[C@H]1CCCC(=O)N1CCOCC1 -9.84%
CCCCNC(=O)c1nnn2cc(-c3ccc(Cl)cc3)[nH]c(=O)c12 -15.4%
